Data reported in patent US10723751B2 (priority 2013, dated 2020).

Test system: multiresistant Pseudomonas aeruginosa
Details: tracheal wash isolate

| SMILES | culture sensitivity |
| --- | --- |
| CC1=C(C(=O)O)N2C(=O)[C@@H](NC(=O)[C@H](N)c3ccccc3)[C@H]2SC1 [cephalexin] | resistance |
| CN1CCN(c2c(F)cc3c(=O)c(C(=O)O)cn4c3c2OCN4C)CC1 [marbofloxacin] | sensitive |
